# Laboratory results reported in patent US20250122296A1 (BIOTHEUS, published 2025).
# Target: T1, human 4-1BB (human, UniProt Q07011 24-255)
# T1 construct: whole, on cells; also called h4-1BB; CD137
# Assay: flow cytometry on CHO-h4-1BB cells, goat anti-human IgG-Fc (PE) detection, MFI
# Method: By using the PLVX vector (synthesized by Qingke) of human 4-1BB cDNA which was cloned to the multiple cloning site (MCS) by transfection, CHO cells overexpressing human 4-1 BB were generated and named as CHO-h4-1BB cells. The expanded cultured CHO-h4-1BB cells was adjusted to have a cell density of 2×10^6 cells/ml, added to a 96-well flow plate, 100 μl/well, and centrifuged for later use. The bispecific antibody was diluted with PBS, and the diluted sample in 100 μl/well was added to the 96-well flow plate with cells, incubated at 4° C. for 60 min, and washed twice with PBS. Goat anti-human IgG-Fc (PE) (Abcam, ab98596) diluted 100 times with PBS was added, 100 μl/well, incubated at 4° C. for 30 min, and washed twice with PBS. The cells resuspended with PBS was added, 100 μl/well, and detected on a CytoFlex (Beckman) flow cytometer, and the corresponding MFI was calculated. The bispecific antibody of the present invention had binding activity to CHO-h4-1BB cells.
# T1 sequence (Q07011 24-255): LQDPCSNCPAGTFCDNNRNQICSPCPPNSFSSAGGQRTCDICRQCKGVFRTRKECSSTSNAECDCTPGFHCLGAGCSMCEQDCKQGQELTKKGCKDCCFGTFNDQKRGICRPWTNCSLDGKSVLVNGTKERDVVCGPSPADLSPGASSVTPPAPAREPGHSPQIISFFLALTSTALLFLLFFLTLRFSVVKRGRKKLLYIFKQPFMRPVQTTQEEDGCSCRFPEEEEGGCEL
binder,measurement,value
"anti-Claudin 18.2×4-1BB bispecific antibody (Claudin 18.2×4-1BB biAb) (bispecific antibody, human IgG1, kappa, Expressed in Expi-CHO cells and purified with protein A; also called the bispecific antibody of the present application) heavy: QVQLVQSGAEVKKPGASVKVSCKASGYTFTSYYMHWVRQAPGQGLEWMGTIYPGNGDTSYNQKFQGRVTMTRDKSTSTVYMELSSLRSEDTAVYFCARGGYYGNSLDYWGQGTLVTVSSASTKGPSVFPLAPSSKSTSGGTAALGCLVKDYFPEPVTVSWNSGALTSGVHTFPAVLQSSGLYSLSSVVTVPSSSLGTQTYICNVNHKPSNTKVDKKV[… human IgG1 Fc with changes …]GGGGSGGGGSGGGGSGGGGS[… about 120 residues …] light: DIVMTQSPDSLAVSLGERATINCKSSQSVLSSGNQKNYLAWYQQKPGQPPKLLIYWASTRESGVPDRFSGSGSGTDFTLTISSLQAEDVAVYYCQNAYYYPFTFGQGTKLEIKRTVAAPSVFIFPPSDEQLKSGTASVVCLLNNFYPREAKVQWKVDNALQSGNSQESVTEQDSKDSTYSLSSTLTLSKADYEKHKVYACEVTHQGLSSPVTKSFNRGEC",binding result,binds
